Measurements published in publication PMC8224886.
No constants are given. Whether binding was seen depends on the method and setting. Binding seen in cells or lysates may run through a third protein. Some binding calls cover weakened binding; strength is not graded here.

Amino acid sequences for entries named in this document (tags omitted).
UniProt P40763: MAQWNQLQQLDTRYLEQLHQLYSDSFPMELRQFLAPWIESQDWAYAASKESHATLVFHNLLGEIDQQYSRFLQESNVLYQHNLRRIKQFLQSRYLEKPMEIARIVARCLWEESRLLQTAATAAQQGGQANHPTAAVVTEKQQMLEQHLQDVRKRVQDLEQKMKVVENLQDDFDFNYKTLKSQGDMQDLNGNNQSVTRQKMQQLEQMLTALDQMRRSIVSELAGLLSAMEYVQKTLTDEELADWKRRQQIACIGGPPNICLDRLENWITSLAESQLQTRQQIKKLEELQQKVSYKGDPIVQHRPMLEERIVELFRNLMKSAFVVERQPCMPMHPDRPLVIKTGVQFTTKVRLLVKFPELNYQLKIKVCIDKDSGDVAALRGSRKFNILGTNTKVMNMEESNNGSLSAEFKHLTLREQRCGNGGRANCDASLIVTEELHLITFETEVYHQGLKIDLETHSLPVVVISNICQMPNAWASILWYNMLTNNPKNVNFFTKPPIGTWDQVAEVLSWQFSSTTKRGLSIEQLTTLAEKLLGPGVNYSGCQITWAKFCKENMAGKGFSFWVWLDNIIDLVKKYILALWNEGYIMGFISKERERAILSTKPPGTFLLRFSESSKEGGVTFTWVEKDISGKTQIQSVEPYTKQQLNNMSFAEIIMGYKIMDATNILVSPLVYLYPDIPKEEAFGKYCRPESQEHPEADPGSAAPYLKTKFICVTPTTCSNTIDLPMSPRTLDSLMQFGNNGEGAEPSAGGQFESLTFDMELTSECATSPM
UniProt Q05322: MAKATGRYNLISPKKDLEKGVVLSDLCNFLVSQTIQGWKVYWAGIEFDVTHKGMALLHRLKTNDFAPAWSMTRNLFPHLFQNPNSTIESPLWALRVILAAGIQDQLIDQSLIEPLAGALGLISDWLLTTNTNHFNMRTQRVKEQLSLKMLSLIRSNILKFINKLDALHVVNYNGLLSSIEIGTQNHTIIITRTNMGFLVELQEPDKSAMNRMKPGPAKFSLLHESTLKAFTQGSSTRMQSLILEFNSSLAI
UniProt O00629: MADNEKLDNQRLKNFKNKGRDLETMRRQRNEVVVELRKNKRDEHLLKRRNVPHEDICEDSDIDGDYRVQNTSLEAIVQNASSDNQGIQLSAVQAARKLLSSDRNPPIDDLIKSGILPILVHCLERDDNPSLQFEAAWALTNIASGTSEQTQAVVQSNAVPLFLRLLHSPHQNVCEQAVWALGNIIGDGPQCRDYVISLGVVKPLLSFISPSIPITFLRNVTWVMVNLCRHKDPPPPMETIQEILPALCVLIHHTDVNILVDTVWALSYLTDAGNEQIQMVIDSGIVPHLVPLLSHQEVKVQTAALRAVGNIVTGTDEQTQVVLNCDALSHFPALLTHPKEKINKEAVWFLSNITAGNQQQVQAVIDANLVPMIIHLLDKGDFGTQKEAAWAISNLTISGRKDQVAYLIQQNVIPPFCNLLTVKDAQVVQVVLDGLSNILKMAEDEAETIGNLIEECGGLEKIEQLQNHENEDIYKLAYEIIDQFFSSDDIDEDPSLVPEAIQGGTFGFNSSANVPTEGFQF
UniProt P52294: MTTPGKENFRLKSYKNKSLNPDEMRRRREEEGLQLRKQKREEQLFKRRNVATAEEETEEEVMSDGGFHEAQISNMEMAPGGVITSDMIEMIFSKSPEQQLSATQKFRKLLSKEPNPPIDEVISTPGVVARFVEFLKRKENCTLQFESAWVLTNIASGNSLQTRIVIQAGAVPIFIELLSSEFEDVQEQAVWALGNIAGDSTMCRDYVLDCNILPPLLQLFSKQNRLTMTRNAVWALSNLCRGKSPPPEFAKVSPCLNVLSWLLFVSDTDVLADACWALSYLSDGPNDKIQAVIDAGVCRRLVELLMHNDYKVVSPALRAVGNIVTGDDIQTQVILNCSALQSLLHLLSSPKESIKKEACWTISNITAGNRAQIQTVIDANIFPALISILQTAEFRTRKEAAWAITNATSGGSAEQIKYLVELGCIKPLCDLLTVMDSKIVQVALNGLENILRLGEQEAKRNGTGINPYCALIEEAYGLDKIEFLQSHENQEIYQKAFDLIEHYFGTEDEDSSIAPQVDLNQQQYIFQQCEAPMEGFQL

Assays:
Test in all cases: co-IP
STAT3-mCherry = STAT3-mCherry (UniProt P40763)
[1] = biological target: GFP-VP24 (Ebola virus VP24 fused to GFP) (Ebola virus (EBOV, species Zaire ebolavirus)) (UniProt Q05322)
[2] = biological target: FLAG-tagged karyopherin Kα4 (FLAG-Kα4) (UniProt O00629)
[3] = biological target: FLAG-tagged karyopherin alpha-1 (FLAG-Kα1) (UniProt P52294)

Row | Substance | binding [1] | other results
1 | FLAG-VP24 (Ebola virus VP24, FLAG-tagged) (from UniProt Q05322 1-251) | – | binding (STAT3-mCherry): binds
2 | FLAG-tagged wild-type STAT3 (FLAG-STAT3 WT) (from UniProt P40763 1-770) | binds | –
3 | GFP-VP24 (Ebola virus VP24 fused to GFP) (from UniProt Q05322 1-251) | – | binding [2]: no binding; binding [3]: binds
4 | endogenous STAT3 (total STAT3) (from UniProt P40763 1-770) | binds | –
5 | pY-STAT3 (tyrosine-phosphorylated STAT3), endogenous (from UniProt P40763 1-770) | binds | –
